Data reported in the supplement of paper PMC3334620.
Whole data set: some 33,000 sequences, median “E-score (-0.5 to 0.5)” near -0.017, cut for the highest 2% near 0.3. The list shows a part of the results.

target: T1, Sut1 (UniProt P53032); assay: PBM E-score (8-mer binding enrichment) (E-score (-0.5 to 0.5)); higher = stronger / more preferred TF binding; most listed sequences are background and not binding sites; conditions: protein concentration: 200 nM; construct: GST-full length
T1 sequence: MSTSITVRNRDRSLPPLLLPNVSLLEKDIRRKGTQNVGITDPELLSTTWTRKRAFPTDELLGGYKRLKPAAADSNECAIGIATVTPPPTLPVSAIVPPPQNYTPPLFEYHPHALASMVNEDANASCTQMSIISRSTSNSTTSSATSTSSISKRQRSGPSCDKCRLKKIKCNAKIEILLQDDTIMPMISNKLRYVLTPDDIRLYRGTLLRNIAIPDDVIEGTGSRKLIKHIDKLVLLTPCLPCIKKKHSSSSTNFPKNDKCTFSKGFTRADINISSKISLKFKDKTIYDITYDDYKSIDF
In short: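 GST-tagged yeast TFs (full-length or DNA-binding domain) were made by PURExpress in vitro transcription/translation and applied at about 100-200 nM to universal all-10-mer Agilent arrays. The arrays were made double-stranded by primer extension, on fresh or once-stripped slides. Bound protein was detected with fluorescent anti-GST, and scans were normalised with masliner. Each ungapped eight-base word, pooled with its reverse complement, received an E-score (modified Wilcoxon-Mann-Whitney statistic) from the Universal PBM Analysis Suite.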

Sequence | PBM E-score
CGATATCC | 0.0944
GGATCTAC | -0.0964
ATACAAGA | 0.202
CGATGTAA | -0.0497
AACTGACC | -0.184
GGTATGGA | 0.0755
AACAACCA | 0.145
CTCCATCC | -0.19
CATCACGG | 0.0245
ACGCGTAG | -0.157
GACTAGGC | -0.199
CTAAGCAC | -0.0439
AAGGTGCT | -0.128
CCCAATGA | -0.14
TCGAAAGA | 0.045
CTCCCTTA | -0.0284
CCCATGTC | -0.271
CGGGCCAC | 0.0891
CCATCCTA | -0.118
ATTAACCC | 0.119
ACTAGTGA | -0.0575
TAGAATCA | -0.00809
GGTCGCCA | -0.167
GCTTGGAC | -0.197
AGTAGCGC | 0.061

Sequence | PBM E-score
CTAAATTA | 0.24
GCAGCCGC | -0.0904
AAAACTTG | 0.143
GCCCAAGC | -0.148
CACGGGAC | 0.0082
AATGCGAC | 0.0893
GAGACTAA | 0.227
GCGGGTCA | -0.0691
AGCCGTTA | 0.0733
CACCCGCG | -0.0943
CGGGCAGC | 0.0964
GCCGCGGA | 0.106
CTAGTCAG | -0.186
GGCCCTAA | -0.0195
CGGATCCG | 0.258
TATAGGGA | -0.0222
AGATGGTC | -0.12
TATTCCCA | 0.139
CAGAGTCA | -0.379
AACTACGG | 0.134
CGATCTTC | 0.0612
CCCCGTTA | -0.0324
CAGCCCAG | -0.234
AGGAGGTC | -0.109
AACGCTCT | -0.241

Sequence | PBM E-score
CTTACAAG | 0.0191
AAATTTGA | 0.161
GTACTGAC | -0.0996
GCGATTCC | 0.0593
ACATACCT | 0.177
CCGAACCA | 0.0339
TCGGAGCA | 0.3
AAATGCCG | 0.127
AATGATTC | 0.192
CCCTCTAC | -0.299
ACCTGAGA | -0.0623
AGCCCGCA | -0.0732
ACCGCAGT | -0.0813
GAGCCCGA | -0.0297
ACCGACCC | -0.157
AACCACTG | -0.0403
AAAAGGAC | 0.0899
AGCGTAGC | -0.0963
GAGATTGC | -0.0355
GCAGAGTA | -0.0113
CTCCGCCC | 0.217
CCTTCGTC | -0.154
GAGTATTA | 0.245
AATAGCGG | 0.0301
CAAACGGC | -0.19

Sequence | PBM E-score
CCGGCATC | 0.0416
AAGCTGAC | 0.0494
CCTGTGAC | -0.303
ATTGAAGG | 0.029
CAACACCG | 0.0955
CTATAGTC | -0.077
AACCGTAT | -0.183
ATTCCTCG | -0.045
AAGAGTAA | 0.0815
ACTTACAA | 0.267
CGTAATCA | 0.142
CCGCCCCA | -0.06
AGTGTCTA | 0.0615
ACTCCCCA | -0.0539
GTGGCAAC | -0.0293
ATGGGTAA | 0.106
CTTACTCC | 0.365
CCCTATGC | -0.262
ACTTCGGA | 0.397
AGAAAGCG | 0.0146
CCTAAGGA | -0.0856
AGGCGACT | -0.145
CTGGTCAA | -0.0819
CTAGACCA | -0.0506
AAGCGGCC | -0.153

Sequence | PBM E-score
CGGCCTGA | -0.217
CCGTACCG | -0.00502
ATTTAGAA | 0.198
ATATTATA | 0.249
ATACACCG | 0.0181
ACGGAAGA | 0.147
CCGGTCTA | 0.0109
AACCATTA | 0.2
AGGAGCTC | -0.18
CAGGTCTA | -0.109
AGACCATC | -0.142
GAGGATGA | -0.212
CACTCCTC | -0.176
AGCTCCGG | 0.466
CTACGACC | -0.00748
GACAAAGA | 0.181
GGCACAAA | -0.112
CAGTGTAA | 0.09
GGACCCAC | -0.0323
CACGAGCG | -0.268
CTGATACC | -0.0637
TCGCGTAA | 0.173
CGGCGCTC | 0.0683
GACTCATA | 0.0779
AGAAATCG | 0.0841

Sequence | PBM E-score
CTTCTCCC | -0.125
AGTCTCGA | -0.172
GTCCAGCA | -0.315
CGGTGCTC | 0.0312
ATAATACG | 0.182
CACTCACG | -0.0637
ACATACTG | 0.0299
CAGGCCCG | -0.156
AACGGAAA | 0.327
CTTTTGAA | 0.152
CCTAATCG | 0.0823
CTTGGAGA | -0.00672
CGCGAAAA | 0.0171
AGTTAAGC | 0.142
ACTAACAC | 0.0342
AAGTCTCA | -0.113
AACGCATC | -0.159
CTAATGAA | 0.135
AAAGATAG | 0.139
GGCTTCAA | -0.181
CCGTAGTA | 0.123
GCTGAACA | 0.0731
ATACTGAT | 0.222
CCTCGAAG | 0.0696
AGGTTATA | -0.0188

Sequence | PBM E-score
ATAAAGTC | 0.17
AGAAGGCT | -0.0632
GGGAGTGA | -0.0284
CTAACCAA | 0.0907
TACGGTAA | 0.228
CAGCGCTA | -0.163
CCTGACCC | -0.195
CAGCCGGC | -0.0969
CAGGGTAC | -0.303
AACCCGAT | -0.0428
GCGCGCGC | 0.203
GGCCCTAC | -0.17
GACCCCTC | -0.262
GACCACAC | -0.00407
CCTGAAAG | -0.205
GATTGGTA | 0.171
AGGCAACG | -0.0843
CCTTCTCA | -0.0302
CTTTGTGA | -0.0025
AAAGAGTA | 0.0101
ACCCGGCC | -0.267
CGGAAGTC | 0.179
